Data as given in the supplement of paper PMC8728848.
The list shows a part of the results.

How the values were obtained:
Test in all cases: glycan array binding signal (z-score within array); higher = stronger binding
Settings in all cases: glycan notation: IUPAC condensed, linker removed
[1] = biological target: Neu5Ac(a2-8)Neu5Ac(a2-3)[GalNAc(b1-4)]Gal(b1-4)Glc
Procedure, shortened: (§1)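 Glycan array data came from 3228 arrays in the Consortium for Functional Glycomics database, and only arrays with an available protein sequence were kept. Glycan names were put into IUPAC-condensed notation, and columns mapping to the same glycan were averaged. The binding signal is a within-array Z-score, averaged across arrays of one protein sequence run at different concentrations or buffers and across linkers. A negative Z-score can be read as non-binding.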

[2] = biological target: Neu5Ac(a2-8)Neu5Ac(a2-8)Neu5Ac
Procedure, shortened: as §1

[3] = biological target: Neu5Ac(a2-8)Neu5Ac(a2-8)Neu5Ac(a2-3)Gal(b1-4)Glc
Procedure, shortened: as §1

[4] = biological target: Neu5Ac(a2-8)Neu5Ac(a2-8)Neu5Ac(a2-3)[Gal(b1-3)GalNAc(b1-4)]Gal(b1-4)Glc
Procedure, shortened: as §1

[5] = biological target: Neu5Ac(a2-8)Neu5Ac(a2-8)Neu5Ac(a2-3)[GalNAc(b1-4)]Gal(b1-4)Glc
Procedure, shortened: as §1

[6] = biological target: Neu5Ac(a2-8)Neu5Ac(a2-8)Neu5Ac(a2-8)Neu5Ac(a2-3)[GalNAc(b1-4)]Gal(b1-4)Glc
Procedure, shortened: as §1

[7] = biological target: Neu5Ac(a2-8)Neu5Gc(a2-3)Gal(b1-4)GlcNAc
Procedure, shortened: as §1

[8] = biological target: Neu5Ac(b2-6)Gal(b1-4)GlcNAc
Procedure, shortened: as §1

[9] = biological target: Neu5Ac(b2-6)GalNAc
Procedure, shortened: as §1

[10] = biological target: Neu5Ac9Ac(a2-3)Gal(b1-3)GlcNAc
Procedure, shortened: as §1

[11] = biological target: Neu5Ac9Ac(a2-3)Gal(b1-4)GlcNAc
Procedure, shortened: as §1

[12] = biological target: Neu5Ac9Ac(a2-6)Gal(b1-4)GlcNAc
Procedure, shortened: as §1

[13] = biological target: Neu5Gc(a2-3)Gal(b1-3)GlcNAc
Procedure, shortened: as §1

[14] = biological target: Neu5Gc(a2-3)Gal(b1-3)[Fuc(a1-4)]GlcNAc
Procedure, shortened: as §1

[15] = biological target: Neu5Gc(a2-3)Gal(b1-4)Glc
Procedure, shortened: as §1

[16] = biological target: Neu5Gc(a2-3)Gal(b1-4)GlcNAc
Procedure, shortened: as §1

[17] = biological target: Neu5Gc(a2-3)Gal(b1-4)GlcNAc(b1-3)Gal(b1-4)GlcNAc(b1-2)Man(a1-3)[Neu5Gc(a2-3)Gal(b1-4)GlcNAc(b1-3)Gal(b1-4)GlcNAc(b1-2)Man(a1-6)]Man(b1-4)GlcNAc(b1-4)GlcNAc
Procedure, shortened: as §1

[18] = biological target: Neu5Gc(a2-3)Gal(b1-4)[Fuc(a1-3)]GlcNAc
Procedure, shortened: as §1

[19] = biological target: Neu5Gc(a2-6)Gal(b1-4)GlcNAc
Procedure, shortened: as §1

[20] = biological target: Neu5Gc(a2-6)GalNAc
Procedure, shortened: as §1

[21] = biological target: Neu5Gc(a2-8)Neu5Ac(a2-3)Gal(b1-4)GlcNAc
Procedure, shortened: as §1

[22] = biological target: Neu5Gc(a2-8)Neu5Gc(a2-3)Gal(b1-4)GlcNAc
Procedure, shortened: as §1

[23] = biological target: Neu5Gc(a2-8)Neu5Gc(a2-3)Gal(b1-4)GlcNAc(b1-3)Gal(b1-4)GlcNAc
Procedure, shortened: as §1

[24] = biological target: Neu5Gc(a2-8)Neu5Gc(a2-6)Gal(b1-4)GlcNAc
Procedure, shortened: as §1

[25] = biological target: Neu5Gc(b2-6)Gal(b1-4)GlcNAc
Procedure, shortened: as §1

B1: PpFlo1 (Pichia pastoris) (protein)
chain: MGSSHHHHHHSSGLVPRGSHMQESGDGDISDSAYACDIDATRYDGFNATIYEFQPGDGRLTRDPVFMSTGYLNRTQLHSITGVTDPGFSIYTPGVPTTTLYGIPNVNWENLLLELKGYFRAEVSGDYGLSLRNIDDSAILFFGKETAFQCCNENSISNEASTDYSLFTIFRQEGDETTNLDSFTYTQYLEAGKYYPVRTFFVNIERHAVFNFTMTLPDGTELTDFHNYIYQFGALDEEQCQA
[1]
  glycan array binding signal (z-score): 0.103
[2]
  glycan array binding signal (z-score): -0.364
[3]
  glycan array binding signal (z-score): -0.016
[4]
  glycan array binding signal (z-score): 0.011
[5]
  glycan array binding signal (z-score): -0.438
[6]
  glycan array binding signal (z-score): 0.231
[7]
  glycan array binding signal (z-score): -0.499
[8]
  glycan array binding signal (z-score): 0.76
[9]
  glycan array binding signal (z-score): -0.315
[10]
  glycan array binding signal (z-score): -0.059
[11]
  glycan array binding signal (z-score): -0.191
[12]
  glycan array binding signal (z-score): -0.44
[13]
  glycan array binding signal (z-score): -0.388
[14]
  glycan array binding signal (z-score): -0.403
[15]
  glycan array binding signal (z-score): -0.317
[16]
  glycan array binding signal (z-score): -0.192
[17]
  glycan array binding signal (z-score): 0.285
[18]
  glycan array binding signal (z-score): 0.262
[19]
  glycan array binding signal (z-score): 0
[20]
  glycan array binding signal (z-score): -0.058
[21]
  glycan array binding signal (z-score): -0.196
[22]
  glycan array binding signal (z-score): -0.287
[23]
  glycan array binding signal (z-score): -0.06
[24]
  glycan array binding signal (z-score): -0.324
[25]
  glycan array binding signal (z-score): -0.354
